Measurements published in the supplement of paper PMC9513381.
Recombinant human monoclonal antibodies (heavy:light variable regions). ELISA EC50 on the named antigen, from 10 µg/ml down; IC50 / IC90 against spike pseudovirus on 293T-ACE2 cells, 48 h; lower = stronger. Calls: IC50 above 1,000 ng/ml = non-neutralizing; EC50 above 1,000 ng/ml = non-binder. The source prints 1000 for neutralization that was not reached; it is given as >1000 ng/ml. Only binders of the Wuhan-Hu-1 domain have neutralization values.

B1: B2074 (protein)
chain 1: EVQLLESGGGLVQPGGSLRLSCAASGFTFSNYAMNWVRQAPGKGLEWVSAIDGSVGSTYYADSVKGRFTISRDNSKNTLYLQMNSLRADDTAVYYCAKRRGYYDSIHYRPGPEYFQNWGQGTLVTVSS
chain 2: DIQLTQSPSSLSASVGDRVTITCRASQSISRYLNWYQQKPGKAPKLLIYAASSLQSGVPSRFSGSGSGTNFTLTISSLQPEDFATYYCQQSYSTPPITFGQGTRLEIK
B2: B2089 (protein)
chain 1: QVQLVESGGGVVQPGRSLRLSCEASGFSFSTHGMHWVRQAPGKGLEWVALIYFDGKKTKYSDSVKGRFTVSRDNSRNTLFLQMTRLRTEDTAVYYCAREGEVTLIVGNYFDYWGQGTLVTVSS
chain 2: DIQMTQSPSSLSASVGDRVTITCRASQYISNYLNWYQQKPGKAPKLLIYAASSLQSGVPSRFSGSGSGTDFTLTISSLQPEDFATYYCQQSYTNPLYTFGQGTKLEIK
B3: B2092 (protein)
chain 1: EVQLVESGGGLVQPGGSLRLSCAASGFTFSSFNMNWVRQAPGKGLEWVSYISTSGSTIYYADSVEGRFSISRDNAKNSLYLQMNSLRDEDTAVYYCARGVGPRSYYYYGMDVWGQGTTVTVSS
chain 2: DIQMTQSPSSLSASVGDRVTITCRASQSISSFLNWYQQKPGKAPNLLIYAASSLASGVPSRFSGSGSGTDFTLTISSLQPEDFATYYCQQSYSTLPITFGQGTRLEIK
B4: B679 (protein)
chain 1: EVQLVESGGGLVQPGRSLRLSCAASGFTFEDYAMHWVRQAPGKGLEWVSGISWNGGVIDYADSVKGRFIISRDNAKNSLYLQMRRLTAEDTALYYCAKDIDRGNGYDFPLDYWGQGTLVTVSS
chain 2: QSVLTQPPSASGTPGQAVTISCSGSSSNIGSNTVNWYQQLPGTAPKLLIYNNHQRPSGVPDRFSGSKSGTSASLAISGLQSEDEANFYCAAWDDRLNGVVFGGGTKLTVL
B5: B2109 (protein)
chain 1: QVQLQESGPGLVRPSETLSVTCAVSGYSISSSYYWGWIRQSPGRGLEWIGSIYHSGTTYYNPSVKSRLTISVDTSTNQFSLTLRSVTAADTAMYYCASNSGQVVIGAFDIWGQGTMVTVSS
chain 2: EIVLTQSPATLSLSPGERATLSCRASQSLSTYLAWYQQKPGLAPRLLIYDTSTRATGIPDRFSGSGSETDFTLTISRLDPEDFAVYYCQQYGSSPRTFGQGTKLEIK
B6: B018 (protein)
chain 1: EVQLVESGGGLVQPGGSLRLSCAASGFTFSNYWMTWVRQAPGKGLEWVASIKQDGSETFYVDSVKGRFTISRDNAKNSLHLHMNSLRPEDTAVYYCARAETDYIAAGGSPEYFQHWGQGTLVTVSS
chain 2: DIQMTQSPSSLSASVGDRVIITCQASQDIGNFLNWFQQRPGRAPKLLIYDASNLDTGVPARFSGSGSGTDFTFTISSLQPEDIATYYCQHYDNVALTFGGGTKVDFK
B7: B004 (protein)
chain 1: QVQLVESGGGVVQPGRSLRLSCAASGFPFSSYAIHWVRQSPGKGLEWVAVISSDGNFKYSADSVKGRFTISRDNSKSTLYLQMNSLRAEDTAVYYCAREADDDMGIVPIFDYWGQGTLVTVSS
chain 2: QSALTQPASVSGSPGQSISISCTGTSSDVGSYNLVSWYQHHPGKAPKSIIYEDTKRPSGVSNRFSGSKSGNTASLTISGLQAEDEGDYYCCSYAGSHTWVFGGGTKVTVL
B8: B2077 (protein)
chain 1: QVQLQESGPGLVKPSETLSLTCTVSVGSISSYYWSWIRQPPGKGLEWIGYIYYSGSTNYNPSLKSRVTISVDTSKNQFSLKLSSVTAADTAVYYCARHVLVPPAALGLTPHTYFDTWGQGTLVTVSS
chain 2: QSVLTQPPSVSGAPGQRVTISCTGSSSNIGAGCDVHWYQHLPGTAPKLLIYGNTNRPPGVPDRFSGSKSGTSASLAITGLQAEDEADYYCQSYDTSLSGEVVFGGGTKLTVL
B9: B675 (protein)
chain 1: EVQLVQSGTEVKKPGESLKISCQGSGYRFTSYWIAWVRQMPGKGLEWMGIIYPGDSETRYSPSFQGQVTISVDKSISTAYLHWSSMKASDTAMYYCARSMTTNYFDLCGQG
chain 2: QSVLTQPASVSGSPGQSITIFCTGTSSDVGGYNYVSWYQQHPGKAPKLMIYDVSNRPSGVSNRFSGSKSGNTASLTISGLQAEDEADYYCSSYTSSSTLVVFGGGTKLTVL
B10: B686 (protein)
chain 1: QVQLVESGGGVVQPGRSLRLSCAASGISFSTSVMHWVRQAPGKGLEWVTVISYDGVNNYYADSVKGRFTISRDNSKNTLYLQMNSLRDEDTAVYYCAKSHPIAAGTLFWNAFDIWGQGTMVTVSS
chain 2: AIQLTQSPSSLSASVGDRVTITCRASQGISSALAWYQQKPGKAPKLLIYDASSLESGVPSRFSGSGSGTDFTLTISSLQPEDSATYYCQQFNTYLTFGGGTKVEIK
B11: B671 (protein)
chain 1: EVQLLESGGGLVQPGGSLTLSCAVSGFTFTNYAVAWVRQAPGKGPEWVSTIKGGGDVTWYVASVRGRFTISRDNSMNTAFLQMDSLRAEDTAIYYCARDGDYPTDRFDFWGQGTLVVVSS
chain 2: QSVLTQPPSVSGAPGQRVTISCTGSSSNIGAGYAVHWYQQLPGTAPKLLIYSNNNRPSGVPDRFSGSKSGTSASLAITGLLAEDEADYFCQSYDSSLSGSVFGTGTKVTVL
B12: B012 (protein)
chain 1: QVQLVESGGGVVQPGRSLRLSCAASGFTFSTYGMHWVRQAPGKGLEWVALISYDGSDKYYADSVKGRFTISRDNSKDTLFLRLNSLRAEDTAVYYCAKQISPYYASGRSYFDYWGQGVLVTVSS
chain 2: EIVLTQSPATLSLSPGERATLSCGASQSVSSGYLAWYQHKPGLAPRLLMYDASTRATGIPDRFSGSGSGTDFTLTISRLEPEDFAVYFCQQYGSSPITFGQGTRLEIK
B13: B2094 (protein)
chain 1: QVQLQESGPGLVKASETLSLTCTVSGDSISRYYWSWIRQPPGKGLEWIGYIYDSRSTNYNPSLKSRVTISIDTSKNHFSLKLSSVTAADTAVYYCARHEVLTAILPYFDLWGRGTLVTVSS
chain 2: DIQMTQSPSSLSASVGDRVTITCRASQSINRYLNWYQQKPGKAPKLLIYAASTLQSEVPSRFSGSGSGTDFTLTISSLQPEDFATYYCQQSYSPRGITFGPGTKVDVK
B14: B005 (protein)
chain 1: QVQLVESGGGVVQPGRSLRLSCAASGFTFSHYGMHWVRQAPGKGLEWVAVILYDGSDKYYADSVKGRFTISRDNSKNMLYLQMNSLRAEDRAIYYCAKDLGSYAYLFNYFDYWGQGTLVTVSS
chain 2: EIVLTQSPGTLSLSPGERATLSCRASQSVGGGYLAWYQQKPGQAPRLLIYGASSRATGVPDRFSGSGSGTDFTLTISRLEPEDFAVYYCQQYSSSRTFGQGTKVEIK
B15: B2070 (protein)
chain 1: QVQLVQSGAEVKKPGSSVKVSCKASGGTFSSNVISWVRQAPGQGLEWMGAIIPIFGPANYAQKFQDRVTITADESTSTAYMELSSLRSEDTAVYYCARRSQSSSFGPRYYGMDVWGQGTTVTVSS
chain 2: DIQMTQSPSSLSASVGDRVTITCQASEDINKYLNWYQQKPGKAPKLLIYDASNLETGVPSRFSGSGSGTDFTFTISSLQPEDIATYYCQQYDNLPRTFGQGTKLEIK
B16: B2084 (protein)
chain 1: EVQLVESGGALVQPGGSLRLSCVTSGFTLSDYWMNWVRQAPGKGLEWVALIKKDGSETKYVDSLRGRFTISRDNAKNSLYLQMDSLRVDDTAVYYCVAGAGWLPDYWGQGTLVTVSS
chain 2: QSVLTQPPSVSAAPGQKVTISCSGSSSNIGNNYVSWYQQLPGTAPKLLIYENNKRASGIPDRFSGSKSGTSATLGITRLQSGDEADYYCGTWDSNLSASWVFGGGTKLTVL

Target: SARS-CoV-2 Delta (B.1.617.2) spike RBD
Test: ELISA binding EC50; higher = weaker binding; ELISA of recombinant human antibody on coated antigen, from 10 µg/ml in fourfold dilutions; four-parameter fit.

Binder	ELISA binding EC50
B1	> 1 µg/mL
B2	> 1 µg/mL
B3	> 1 µg/mL
B4	> 1 µg/mL
B5	> 1 µg/mL
B6	> 1 µg/mL
B7	> 1 µg/mL
B8	> 1 µg/mL
B9	> 1 µg/mL
B10	> 1 µg/mL
B11	> 1 µg/mL
B12	> 1 µg/mL
B13	> 1 µg/mL
B14	> 1 µg/mL
B15	> 1 µg/mL
B16	> 1 µg/mL

Target: SARS-CoV-2 Omicron BA.1 spike protein
Test: as above

Binder	ELISA binding EC50
B1	> 1 µg/mL
B2	> 1 µg/mL
B3	> 1 µg/mL
B4	> 1 µg/mL
B5	> 1 µg/mL
B6	> 1 µg/mL
B7	> 1 µg/mL
B8	> 1 µg/mL
B9	> 1 µg/mL
B10	> 1 µg/mL
B11	> 1 µg/mL
B12	> 1 µg/mL
B13	> 1 µg/mL
B14	0.0125 µg/mL
B15	> 1 µg/mL
B16	> 1 µg/mL

Target: SARS-CoV-2 Wuhan-Hu-1 spike receptor-binding domain
Test: as above

Binder	ELISA binding EC50
B1	> 1 µg/mL
B2	> 1 µg/mL
B3	> 1 µg/mL
B4	> 1 µg/mL
B5	> 1 µg/mL
B6	> 1 µg/mL
B7	> 1 µg/mL
B8	> 1 µg/mL
B9	> 1 µg/mL
B10	> 1 µg/mL
B11	> 1 µg/mL
B12	> 1 µg/mL
B13	> 1 µg/mL
B14	> 1 µg/mL
B15	> 1 µg/mL
B16	> 1 µg/mL
